Counter-ions that a name gives are not always drawn.
The compounds below were run on influenza virus A/PR-8. Conditions: 30 mg/kg i.p., 24 h and 3 h before infection and 5 times every other day from second day after; 21 days after challenge.

`CC(C)=CCCC(C)=CCCC(C)=CCCC(C)=CCCC(C)=CCCC(C)=CCCC(C)=CCCC(C)=CCCC(C)=CCN(C)Cc1ccccc1` [N-methyl-N-benzylsolanesylamine hydrochloride] and `CC(C)=CCCC(C)=CCCC(C)=CCCC(C)=CCCC(C)=CCCC(C)=CCCC(C)=CCCC(C)=CCCC(C)=CCN(C)c1ccccc1` [N-methyl-N-phenylsolanesylamine] are the same in “Prevention from influenza injection (Survival rate)” value (“Prevention from influenza injection” for short): 20% for the first, 20% for the second.

Going from `CC(C)=CCCC(C)=CCCC(C)=CCCC(C)=CCCC(C)=CCCC(C)=CCCC(C)=CCCC(C)=CCCC(C)=CCNCc1ccccc1` [N-benzylsolanesylamine hydrochloride] to `CC(C)=CCCC(C)=CCCC(C)=CCCC(C)=CCCC(C)=CCCC(C)=CCCC(C)=CCCC(C)=CCCC(C)=CCNCCc1ccccc1` [N-phenethylsolanesylamine hydrochloride], the “Prevention from influenza injection” value falls from 80% to 60%.

`NC12CC3CC(CC(C3)C1)C2` [Amantadine hydrochloride, reference compound] was tested, and the “Prevention from influenza injection” value was 30%.
